One assay deals with HSkMC. As to the kind of experiment: cytotoxicity call (relative viability < 0.9). The settings on record: 10 µM.
In the next assay the test system is HepG2. Briefly: cytotoxicity call (relative viability < 0.9). As to conditions: 10 µM.
The next assay deals with S. aureus RN4220. As to the kind of experiment: growth inhibition call (relative growth <= 0.2). The settings on record: 50 µM.

Each structure is given as a SMILES string. Some of the results follow.

With `COCC#Cc1ccc2c(c1)O[C@H](CN(C)S(=O)(=O)c1cccc(F)c1)[C@H](C)CN([C@H](C)CO)S2(=O)=O`, the cytotoxicity call in the assay with HSkMC and with HepG2 was “inactive” in each case. For the same compound, in the assay with S. aureus RN4220, the growth inhibition call was “inactive”.
On to `C[C@@H]1CN([C@@H](C)CO)C(=O)c2cccc(NS(=O)(=O)c3cn(C)cn3)c2O[C@H]1CN(C)C(=O)Nc1ccc2c(c1)OCO2`, for which the cytotoxicity call with HSkMC and in the assay with HepG2 was “inactive” each time. In addition, the growth inhibition call in the assay on S. aureus RN4220 was “inactive”.
For `O=C(C[C@@H]1C[C@H]2c3cc(NC(=O)Cc4ccncc4)ccc3O[C@H]2[C@@H](CO)O1)NCc1ccc2c(c1)OCO2`, the cytotoxicity call with HSkMC and in the assay with HepG2 was “inactive” throughout. In addition, the growth inhibition call in the assay with S. aureus RN4220 is “inactive”.
As to `C[C@H]1CN([C@@H](C)CO)C(=O)c2cc(-c3ccc(C(=O)N(C)C)cc3)cnc2O[C@H]1CN(C)C(=O)C1CC1`, the cytotoxicity call in the assay with HSkMC and with HepG2 was “inactive” each time. In addition, in the assay on S. aureus RN4220, the growth inhibition call is “inactive”.
With `COCCOC(=O)N1C(=O)[C@@]2(c3cc(C#Cc4ccc(OC)cc4)ccc31)[C@H](c1ccc(OCCO)cc1)N1[C@H](c3ccccc3)[C@H](c3ccccc3)OC(=O)[C@H]1[C@@H]2C(=O)N1CCN(c2ncccn2)CC1`, the cytotoxicity call in the assay on HSkMC and with HepG2 was “inactive” in each case. In addition, the growth inhibition call with S. aureus RN4220 is “inactive”.
As for `C=CCNC1=NS(=O)(=O)c2ccccc21`, the cytotoxicity call in the assay on HSkMC and with HepG2 was “inactive” each time. The growth inhibition call in the assay on S. aureus RN4220 was “inactive”.
As to `C[C@H](CO)N1C[C@H](C)[C@H](CN(C)S(=O)(=O)c2cn(C)cn2)Oc2ccc(NC(=O)Nc3ccccc3)cc2CC1=O`, in the assay with HSkMC, the cytotoxicity call was “inactive”. Also, in the assay with HepG2, the cytotoxicity call is “active”. For the same compound, the growth inhibition call in the assay with S. aureus RN4220 is “inactive”.
Take `C[C@H](CO)N1C[C@H](C)[C@H](CN(C)Cc2ccc(C(=O)Nc3ccccc3N)cc2)Oc2ccc(NC(=O)Cc3ccccc3)cc2C1=O`: the cytotoxicity call in the assay with HSkMC and in the assay on HepG2 was “inactive” in each case. In addition, in the assay with S. aureus RN4220, the growth inhibition call was “inactive”.
For the compound `C[C@H](CO)N1C[C@H](C)[C@H](CN(C)C(=O)c2ccccc2)OCCCC[C@H](C)Oc2ccc(NS(=O)(=O)c3cccs3)cc2C1=O`, the cytotoxicity call with HSkMC and with HepG2 was “inactive” each time. The growth inhibition call in the assay with S. aureus RN4220 was “inactive”.
As to `C[C@@H]1CN([C@H](C)CO)C(=O)c2cccc(NC(=O)Nc3cccc4ccccc34)c2O[C@H]1CN(C)C(=O)Nc1ccc(C(F)(F)F)cc1`, the cytotoxicity call in the assay with HSkMC and in the assay with HepG2 was “inactive” throughout. Besides, in the assay on S. aureus RN4220, the growth inhibition call is “inactive”.
For `Cc1noc(C)c1S(=O)(=O)Nc1ccc2c(c1)C(=O)N([C@H](C)CO)C[C@H](C)[C@@H](CN(C)C(=O)NC1CCCCC1)O2`, the cytotoxicity call with HSkMC and with HepG2 was “inactive” throughout. Moreover, the growth inhibition call in the assay with S. aureus RN4220 was “inactive”.
`C[C@H]1CN([C@@H](C)CO)C(=O)c2cc(NS(=O)(=O)c3cn(C)cn3)ccc2O[C@@H]1CN(C)C(=O)Nc1ccc(F)cc1`: the cytotoxicity call with HSkMC and in the assay with HepG2 was “inactive” in each case. The growth inhibition call in the assay on S. aureus RN4220 is “inactive”.
For `O=C(C[C@H](Nc1ccc(F)cc1)c1ccccc1)c1ccccc1`, the cytotoxicity call with HSkMC and with HepG2 was “inactive” in each case. In addition, in the assay on S. aureus RN4220, the growth inhibition call is “inactive”.
Take `C=c1cc(C)ccc1=C1NN=C(N)O1`: the cytotoxicity call in the assay with HSkMC and in the assay with HepG2 was “inactive” each time. In addition, the growth inhibition call with S. aureus RN4220 was “inactive”.
Take `COCC(=O)N1C[C@H](C)[C@H](OC)CN(C)C(=O)c2cc(NC(=O)c3cc(C)on3)ccc2OC[C@@H]1C`: the cytotoxicity call in the assay on HSkMC and in the assay with HepG2 was “inactive” in each case. The growth inhibition call with S. aureus RN4220 was “inactive”.
On to `C[C@H]1CN([C@@H](C)CO)C(=O)CCCn2nncc2CO[C@@H]1CN(C)C(=O)C1CC1`, for which the cytotoxicity call in the assay with HSkMC and in the assay on HepG2 was “inactive” each time. Also, the growth inhibition call in the assay on S. aureus RN4220 was “inactive”.
`COc1cccc(-c2ccc3c(c2)O[C@H](CN(C)C(=O)C2CCC2)[C@H](C)CN([C@H](C)CO)S3(=O)=O)c1`: the cytotoxicity call with HSkMC and in the assay with HepG2 was “inactive” each time. Besides, the growth inhibition call in the assay with S. aureus RN4220 was “inactive”.
Take `Cc1c(-c2ccc(C(N)=O)c3[nH]c4cc(C(C)(C)O)ccc4c23)cccc1-n1cnc2ccccc2c1=O`: the cytotoxicity call with HSkMC and with HepG2 was “active” in each case. In addition, the growth inhibition call with S. aureus RN4220 is “inactive”.
For `C[C@@H]1CCCCO[C@@H](CN(C)C(=O)c2ccncc2)[C@H](C)CN([C@H](C)CO)C(=O)c2cc(NC(=O)NC3CCCCC3)ccc2O1`, the cytotoxicity call in the assay with HSkMC and in the assay with HepG2 was “inactive” in each case. The growth inhibition call in the assay with S. aureus RN4220 was “inactive”.
As for `CC(=O)N1[C@H](CO)[C@H](c2ccccc2)C12CN(C(=O)CN1CCOCC1)C2`, the cytotoxicity call in the assay on HSkMC and with HepG2 was “inactive” throughout. In addition, the growth inhibition call in the assay on S. aureus RN4220 was “inactive”.
On to `O=C(CN1CCOCC1)NCC[C@@H]1CC[C@@H](NC(=O)c2ccccc2F)[C@H](CO)O1`, for which the cytotoxicity call in the assay on HSkMC and with HepG2 was “inactive” throughout. The growth inhibition call with S. aureus RN4220 is “inactive”.
Regarding `Cc1noc(C)c1S(=O)(=O)Nc1ccc2c(c1)C(=O)N([C@H](C)CO)C[C@H](C)[C@H](CN(C)S(C)(=O)=O)OCCCC[C@@H](C)O2`, the cytotoxicity call with HSkMC and in the assay with HepG2 was “inactive” in each case. The growth inhibition call in the assay on S. aureus RN4220 was “inactive”.
On to `C[C@H](CO)N1C[C@H](C)[C@H](CN(C)S(C)(=O)=O)Oc2ccc(NS(=O)(=O)c3cn(C)cn3)cc2CC1=O`, for which the cytotoxicity call with HSkMC and in the assay with HepG2 was “inactive” each time. Also, the growth inhibition call in the assay on S. aureus RN4220 is “inactive”.
For the compound `NC1(C#Cc2cncc(C(=O)N3CCOCC3)c2)CCCCC1`, the cytotoxicity call in the assay on HSkMC and in the assay on HepG2 was “inactive” throughout. The growth inhibition call in the assay with S. aureus RN4220 was “inactive”.
Take `C[C@H](CO)N1C[C@H](C)[C@@H](CN(C)Cc2ccc3c(c2)OCO3)Oc2ccc(NC(=O)CCCN(C)C)cc2C1=O`: the cytotoxicity call with HSkMC and in the assay with HepG2 was “inactive” each time. In addition, the growth inhibition call with S. aureus RN4220 was “inactive”.
`O=C1[O][Bi]([OH])[O]c2ccccc21`: the cytotoxicity call with HSkMC and in the assay with HepG2 was “inactive” in each case. Moreover, the growth inhibition call in the assay on S. aureus RN4220 is “inactive”.
Turning to `C[C@H]1CN([C@@H](C)CO)C(=O)c2cc(NS(C)(=O)=O)ccc2O[C@@H]1CN(C)Cc1ccc2c(c1)OCO2`, the cytotoxicity call with HSkMC and in the assay with HepG2 was “inactive” throughout. The growth inhibition call in the assay on S. aureus RN4220 is “inactive”.
Regarding `Cc1noc(C)c1NC(=O)N(C)C[C@@H]1Oc2ccc(NC(=O)Nc3ccc(C(F)(F)F)cc3)cc2CC(=O)N([C@H](C)CO)C[C@H]1C`, the cytotoxicity call in the assay with HSkMC and in the assay with HepG2 was “inactive” throughout. Further, the growth inhibition call in the assay with S. aureus RN4220 is “inactive”.
As to `CS(=O)(=O)N[C@H]1CCN(c2ccccn2)C1`, the cytotoxicity call with HSkMC and in the assay with HepG2 was “inactive” in each case. In the assay with S. aureus RN4220, the growth inhibition call is “inactive”.
For `C[C@H](CO)N1C[C@H](C)[C@H](CN(C)C(=O)Nc2ccc3c(c2)OCO3)Oc2ncc(-c3cccnc3)cc2C1=O`, the cytotoxicity call in the assay on HSkMC and in the assay with HepG2 was “inactive” in each case. Further, the growth inhibition call in the assay on S. aureus RN4220 is “inactive”.
Turning to `COC(=O)c1cnn2c(=O)cc(C)[nH]c12`, the cytotoxicity call in the assay on HSkMC (human skeletal muscle cells) and with HepG2 was “inactive” each time. Also, in the assay with S. aureus RN4220, the growth inhibition call is “inactive”.

For the origin of these results see the antibiotic and cytotoxicity screens of Wong et al. (2023).
